Data: patent US20220175942A1 (published 2022)

Target: EVASIN3
Test: -; previously described evasin

B1: CXCL8_HUMAN (ligand)
chain: not shown
Q: With B1 as the binder, how does the Kd read?
A: Its Kd is 430 pM.
